Measurements as given in the supplement of paper PMC10670038.
Counter-ions that a name gives are not always drawn. ± gives the standard deviation of the averaged measurements. Whole data set: some 2,000 compounds, median “relative cell viability vs DMSO, compound alone” near 1.1, cut for the lowest 2% near 0.29. Some of the results follow.

The compounds below were run on TE10 (assay: relative cell viability vs DMSO, compound alone (fraction); TE10 is an esophageal squamous carcinoma line; higher = less cytotoxic). Conditions: 2 µM; 48 h.
Experimental: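 TE10 ESCC cells (1,000/well, 384-well plates) were treated with Selleck bioactive library compounds at 2 uM alone for 48 h. Viability was read by CellTiter-Glo and expressed relative to DMSO wells. Two technical replicates (A, B).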

SMILES	relative cell viability
C1N2CN3CN1CN(C2)C3 [Methenamine]	1.13 ± 0.084
CCCCCOc1ccc(-c2ccc(-c3ccc(C(=O)N[C@H]4C[C@@H](O)[C@@H](O)NC(=O)[C@@H]5[C@@H](O)[C@@H](C)CN5C(=O)[C@H]([C@@H](C)O)NC(=O)[C@H]([C@H](O)[C@@H](O)c5ccc(O)cc5)NC(=O)[C@@H]5C[C@@H](O)CN5C(=O)[C@H]([C@@H](C)O)NC4=O)cc3)cc2)cc1	1.05 ± 0.013
CC(C)c1nc(N(C)S(C)(=O)=O)nc(-c2ccc(F)cc2)c1/C=C/[C@@H](O)C[C@@H](O)CC(=O)O [Rosuvastatin Calcium]	0.961 ± 0.03
O=C(COc1cccc2c(=O)[nH]ccc12)c1ccccc1	1.19 ± 0.027
CC(=O)N[C@@H](CC(C)C)C(=O)N[C@@H](CC(C)C)C(=O)N[C@H](C=O)CCCNC(=N)N [Leupeptin Hemisulfate]	1.09 ± 0.015
CS(=O)(=O)c1ccc([C@@H](O)[C@@H](CF)NC(=O)C(Cl)Cl)cc1 [Florfenicol]	1.18 ± 0.079
NC(=O)N1CCC(CC(=O)N2CCC([C@H]3c4ncc(Br)cc4CCc4cc(Cl)cc(Br)c43)CC2)CC1 [Lonafarnib]	1.06 ± 0.049
C[C@H](N[C@@H](CCc1ccccc1)C(=O)O)C(=O)N1CCC[C@H]1C(=O)O [Enalaprilat Dihydrate]	1.12 ± 0.029
O=C(Nc1cc(C(F)(F)F)cc(C(F)(F)F)c1)c1cc(Cl)ccc1O	0.18 ± 0.0024
COC(=O)[C@H](c1ccccc1Cl)N1CCc2sccc2C1 [Clopidogrel]	1.237 ± 0.0085
COCCCC/C(=N\OCCN)c1ccc(C(F)(F)F)cc1 [Fluvoxamine maleate]	1.21 ± 0.041
CC1(C)CCC(c2ccc(Cl)cc2)=C(CN2CCN(c3ccc(C(=O)NS(=O)(=O)c4ccc(N[C@H](CCN5CCOCC5)CSc5ccccc5)c(S(=O)(=O)C(F)(F)F)c4)cc3)CC2)C1 [ABT-263 (Navitoclax)]	0.911 ± 0.11
O=C(COc1ccc(C(=O)c2ccccc2)cc1)NC1CCN(Cc2ccccc2)CC1 [AdipoRon]	1.047 ± 0.009
Nc1nc(F)nc2c1ncn2[C@@H]1O[C@H](COP(=O)(O)O)[C@@H](O)[C@@H]1O [Fludarabine Phosphate]	0.214 ± 0.058
O=C(NOCC1CC1)c1ccc(F)c(F)c1Nc1ccc(I)cc1Cl	0.76 ± 0.067
Oc1c(Br)cc(Br)c2cccnc12 [Broxyquinoline]	1.15 ± 0.051
Nc1ccc2ncnc(NCCc3ccc(Oc4ccccc4)cc3)c2c1	0.896 ± 0.039
CN1CCN(S(=O)(=O)c2ccc(-c3cnc(N)c(C(=O)Nc4cccnc4)n3)cc2)CC1	0.961 ± 0.12
COc1ccc(-c2coc3cc(O)ccc3c2=O)cc1 [Formononetin]	0.901 ± 0.044
CNc1nc(-c2ccc3c(N)n[nH]c3c2)cc(N2C[C@@H](C(=O)NC3CCCCC3)CC[C@H]2C)n1	1.05 ± 0.037
O=C1C(c2c(O)[nH]c3ccccc23)=Nc2ccccc21 [Indirubin]	0.947 ± 0.059
CS(=O)(=O)c1ccc(C(=O)Nc2ccc(Cl)c(-c3ccccn3)c2)c(Cl)c1 [Vismodegib (GDC-0449)]	1.24 ± 0.066
Cc1ccc2c(c1)C(=O)C1(O)CCN(c3ccccc3)C1=N2 (single isomer, unassigned; (-)) [(-)-Blebbistatin]	1.11 ± 0.029
CC(C)C[C@H](NC(=O)[C@H](Cc1ccccc1)NC(=O)c1cnccn1)B(O)O [Bortezomib (PS-341)]	0.09 ± 0.011
COc1ccc(CC(C)NCC(O)c2ccc(O)c(NC=O)c2)cc1 (stereo not drawn) [Formoterol Hemifumarate]	1.11 ± 0.1

SMILES	relative cell viability
c1ccc(CC2=NCCN2)cc1 [Tolazoline HCl]	1.16 ± 0.0092
CC(C)(Oc1ccc(CCNC(=O)c2ccc(Cl)cc2)cc1)C(=O)O [Bezafibrate]	1.19 ± 0.027
O=C(O)CCc1nc(-c2ccccc2)c(-c2ccccc2)o1 [Oxaprozin]	1.087 ± 0.0057
O=C(c1cc(Cc2n[nH]c(=O)c3ccccc23)ccc1F)N1CCN(C(=O)C2CC2)CC1	1.19 ± 0.053
O=C(O)CCCc1c[nH]c2ccccc12 [3-Indolebutyric acid (IBA)]	1.1 ± 0.024
O=C1c2ccccc2C(=O)C1c1ccccc1 [Phenindione]	0.978 ± 0.056
CC[C@H]1OC(=O)[C@H](C)[C@@H](O[C@H]2C[C@@](C)(OC)[C@@H](O)[C@H](C)O2)[C@H](C)[C@@H](O[C@@H]2O[C@H](C)C[C@H](N(C)C)[C@H]2O)[C@](C)(O)C[C@@H](C)C(=O)[C@H](C)[C@@H](O)[C@]1(C)O [Erythromycin]	1.08 ± 0.053
COc1cc(F)c(C(C)C)cc1-c1ccc(C(F)(F)F)cc1CN1C(=O)O[C@H](c2cc(C(F)(F)F)cc(C(F)(F)F)c2)[C@@H]1C [Anacetrapib (MK-0859)]	1.04 ± 0.095
CO[C@H]1/C=C/O[C@@]2(C)Oc3c(C)c(O)c4c(O)c(c(/C=N/N5CCN(C)CC5)c(O)c4c3C2=O)NC(=O)/C(C)=C\C=C\[C@H](C)[C@H](O)[C@@H](C)[C@@H](O)[C@@H](C)[C@H](OC(C)=O)[C@@H]1C [Rifampin]	1.049 ± 0.003
Cc1c(Cl)cccc1Nc1ccccc1C(=O)O [Tolfenamic Acid]	1.08 ± 0.018
CCCSc1ccc2[nH]c(NC(=O)OC)nc2c1 [Albendazole]	0.769 ± 0.027
CC(C)Nc1cc(-c2c[nH]c(C(=O)N[C@H](CO)c3cccc(Cl)c3)c2)c(Cl)cn1	0.84 ± 0.00098
Cc1ccc(N(CC2=NCCN2)c2cccc(O)c2)cc1 [Phentolamine Mesylate]	0.894 ± 0.012
Cc1ccc(S(=O)(=O)C=CC#N)cc1	0.063 ± 0.0047
CNC[C@@H](O)c1ccc(O)c(O)c1 [L-Adrenaline]	1.06 ± 0.028
CCc1ccc(CCOc2ccc(CC3SC(=O)NC3=O)cc2)nc1 (stereo not drawn) [Pioglitazone HCl]	1.01 ± 0.062
CCc1ccc(CCOc2ccc(CC3SC(=O)NC3=O)cc2)nc1 (stereo not drawn) [Pioglitazone]	1.15 ± 0.092
O=C(O)/C=C/c1ccc(Cn2ccnc2)cc1 [Ozagrel HCl]	0.982 ± 0.026
O=C(O)/C=C/c1ccc(Cn2ccnc2)cc1 [Ozagrel]	1.14 ± 0.04
COc1cc2nccc(Oc3ccc(NC(=O)C4(C(=O)Nc5ccc(F)cc5)CC4)cc3)c2cc1OC	0.829 ± 0.17
COc1cc2nccc(Oc3ccc(NC(=O)C4(C(=O)Nc5ccc(F)cc5)CC4)cc3)c2cc1OC [Cabozantinib malate (XL184)]	0.903 ± 0.039
CNC(=O)c1cc(COc2nnc(Nc3ccc(Cl)cc3)c3ccoc23)ccn1 [Telatinib]	0.953 ± 0.0032
CCCc1nc(C)c2c(=O)nc(-c3cc(S(=O)(=O)N4CCN(CC)CC4)ccc3OCC)[nH]n12 [Vardenafil HCl Trihydrate]	1.11 ± 0.025
O=c1c(-c2ccc(O)cc2)coc2c([C@@H]3O[C@H](CO)[C@@H](O)[C@H](O)[C@H]3O)c(O)ccc12 [Puerarin]	1.12 ± 0.046
Cc1cc(C)cc(C(=O)NOCCCCCC(=O)NO)c1	0.5308 ± 0.00056

SMILES	relative cell viability
Cc1cc([C@@H](C)Nc2ccccc2C(=O)O)c2nc(N3CCOCC3)cc(=O)n2c1	0.854 ± 0.072
CCOc1nc2cccc(C(=O)O)c2n1Cc1ccc(-c2ccccc2-c2noc(=O)[nH]2)cc1 [Azilsartan]	0.961 ± 0.29
COCCOC(=O)C1=C(C)NC(C)=C(C(=O)OC/C=C/c2ccccc2)C1c1cccc([N+](=O)[O-])c1 (stereo not drawn) [Cilnidipine]	1.15 ± 0.055
CN(C)CCOc1ccc(/C(=C(/CCCl)c2ccccc2)c2ccccc2)cc1 [Toremifene Citrate]	1.108 ± 0.0042
CC(C)(Cc1ccc2ccccc2c1)NC[C@@H](O)COc1cccc(Cl)c1C#N	0.908 ± 0.048
O=C1Nc2ccc(I)cc2C1=Cc1cc(Br)c(O)c(Br)c1	1.07 ± 0.058
CCN1CCN(C(=O)N[C@@H](C(=O)N[C@@H]2C(=O)N3C(C(=O)O)=C(CSc4nnnn4C)CS[C@H]23)c2ccc(O)cc2)C(=O)C1=O [Cefoperazone]	1.01 ± 0.044
O=C(c1cn(Cc2cncn2Cc2ccc(Br)cc2)cc1-c1cccc2ccccc12)N1CCOCC1	0.958 ± 0.015
Cc1ccc(Cl)c(Nc2ccccc2C(=O)O)c1Cl [Meclofenamate Sodium]	0.984 ± 0.078
O=C(NCCO[N+](=O)[O-])c1cccnc1 [Nicorandil]	1.1 ± 0.026
COc1cc(O)c(CC=C(C)C)c(O)c1C(=O)/C=C/c1ccc(O)cc1 [Xanthohumol]	0.875 ± 0.18
Cc1cc(/N=N/c2ccc(S(=O)(=O)Nc3ccccn3)cc2)c(N)cc1O	1.07 ± 0.063
Oc1ccc(OCc2ccccc2)cc1 [Monobenzone]	1.02 ± 0.0068
CNC(=O)[C@H](Cc1c[nH]c2ccccc12)NC(=O)[C@@H](CC(=O)NO)CC(C)C [Ilomastat (GM6001, Galardin)]	1.09 ± 0.033
C[C@H]1C[C@H]2[C@@H]3CCC4=CC(=O)C=C[C@]4(C)[C@@]3(F)[C@@H](O)C[C@]2(C)[C@@]1(O)C(=O)CO [Betamethasone]	1.08 ± 0.26
Cc1nnc(NS(=O)(=O)c2ccc(N)cc2)s1 [Sulfamethizole]	1.07 ± 0.033
FC(F)c1nc2ccccc2n1-c1nc(N2CCOCC2)nc(N2CCOCC2)n1	0.545 ± 0.018
COc1ccccc1S(=O)(=O)Nc1ccc2c(c1)CN(C)C(=O)N2	0.914 ± 0.017
O=C(O)CCCc1ccccc1 [Sodium Phenylbutyrate]	1.19 ± 0.039
Cc1cnc(NC(=O)C2=C(O)c3ccccc3S(=O)(=O)N2C)s1 [Meloxicam]	1.11 ± 0.045
CC1(C)O[C@@H]2C[C@H]3[C@@H]4CCC5=CC(=O)C=C[C@]5(C)[C@@]4(F)[C@@H](O)C[C@]3(C)[C@]2(C(=O)CO)O1 [Triamcinolone Acetonide]	0.947 ± 0.058
OC1(c2ccc(Cl)c(C(F)(F)F)c2)CCN(CCCC(c2ccc(F)cc2)c2ccc(F)cc2)CC1 [Penfluridol]	0.884 ± 0.056
C[C@@H]1C[C@H]2[C@@H]3CCC4=CC(=O)C=C[C@]4(C)[C@@]3(F)[C@@H](O)C[C@]2(C)[C@@]1(O)C(=O)CO [Dexamethasone (DHAP)]	1.189 ± 0.0092
